This passage reports stoichiometry N results from paper PMC11651300.

For this experiment, the target named is T1, Avidin from hen egg-white (hen (egg-white)), P02701.
T1 chain: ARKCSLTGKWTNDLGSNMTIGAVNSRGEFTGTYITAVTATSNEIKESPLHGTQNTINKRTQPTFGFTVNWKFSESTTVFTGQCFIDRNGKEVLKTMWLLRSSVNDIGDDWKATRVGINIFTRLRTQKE
Description: native MS. Particulars: remark: other sources report otherwise.

B1: Avidin from hen egg-white, P02701 25-152 (natural protein)
chain: T1 chain
modifications: here or on the partner: heavily glycosylated (multiple glycoforms present); heavily glycosylated (multiple glycoforms present)
Consider B1, for which the stoichiometry N (in general, a count of units in the complex or per binding partner) was 4.
